From PubChem BioAssay AID1832 (Broad Institute, 2009)
Among all 300,000 compounds or so, about 1,100 (0.37%) were called active. This list was built around the results that the source calls inconclusive (neither active nor inactive); the mix of calls is not that of the screen.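 Rule for the calls: active = inhibition past about -25% in most replicates, and total fluorescence under double the plate's negative control median (limit read from the data); inconclusive = replicates evenly split on the limit, or fluorescence at least double controls; inactive = too little inhibition in most replicates.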

target: Zinc finger protein mex-5 (Caenorhabditis elegans) (UniProt Q9XUB2); assay: MEX-5 zinc finger RNA-binding disruptors – biochemical, C. elegans, fluorescence polarization, MLPCN library, primary screen (AID 1832); conditions: MEX-5/FITC-TCR2 RNA binding, at 10 µM, hits give low values;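 note: 0% = DMSO and -100% = 5 µM competing unlabeled TCR2 RNA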
Sequence of UniProt Q9XUB2 (Q9XUB2 whole entry, looked up): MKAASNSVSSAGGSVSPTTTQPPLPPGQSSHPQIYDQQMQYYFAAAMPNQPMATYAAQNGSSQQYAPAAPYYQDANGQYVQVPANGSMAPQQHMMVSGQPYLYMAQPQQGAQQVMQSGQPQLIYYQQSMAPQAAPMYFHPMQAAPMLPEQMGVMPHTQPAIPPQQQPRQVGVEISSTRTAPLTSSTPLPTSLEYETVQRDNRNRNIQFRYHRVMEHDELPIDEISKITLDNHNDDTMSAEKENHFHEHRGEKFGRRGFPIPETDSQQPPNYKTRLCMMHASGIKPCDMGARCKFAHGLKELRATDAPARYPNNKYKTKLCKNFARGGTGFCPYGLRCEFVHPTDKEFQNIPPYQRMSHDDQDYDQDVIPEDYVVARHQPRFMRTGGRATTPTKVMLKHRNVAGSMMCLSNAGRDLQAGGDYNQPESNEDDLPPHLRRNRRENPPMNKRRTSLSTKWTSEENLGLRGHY

Structure (SMILES)	activity score (negative = inhibition of binding)
CC(C)Cc1nnc(NC(=O)CCC(=O)N2CC(C)CC(C)C2)s1 (centres undefined)	active: -27%
Cc1cc2oc(=O)c(CC(=O)NCCCO)c(C)c2c2occ(C(C)(C)C)c12	inconclusive: -18.8%
O=c1[nH]c(Nc2ccccc2)cc2cc(Br)ccc12	inactive: 1.15%
O=C(CC1Nc2ccccc2NC1=O)Nc1cc(Cl)cc(Cl)c1 (centres undefined)	inconclusive: -23.5%
CN=c1scc(-c2ccccc2F)n1/N=C(\C)c1cccnc1	inactive: 0.625%
CNC(=O)c1cc(C(=O)c2ccc(Cl)cc2)c(Br)[nH]1	inactive: 1.67%
COc1cc(/C=N/Nc2nc3ccccc3[nH]c2=O)ccc1O	inconclusive: 40.7% [fluorescent]
Cc1cc(NC(=O)CCC(=O)N(Cc2ccccc2)C2(C(=O)NC3CCCCC3)CCCC2)no1	inactive: -1.79%
COc1ccc(C(=O)c2sc3nc(C)cc(-c4cccs4)c3c2N)cc1	active: -44.4%
CC1=CC(=C(C#N)c2nc3ccccc3s2)C=C(C)N1CC1CCCO1 (centres undefined)	active: -35.8%
N#Cc1c(-c2ccccc2Cl)c2c([nH]c1=O)-c1ccccc1OC2	inconclusive: -21%
NC(=S)NNc1cccc2cccnc12	inconclusive: -24.9%
O=C1N=C(N2C=CC(=C3C=CNC=C3)C=C2)/C(=C/N=NC(=O)c2ccccc2O)S1	active: -46.2%
O=C(Nc1cccs1)Nc1c(F)c(F)c(F)c(F)c1F	inactive: -0.605%
Cc1ccc(/C=C/C(=O)Nc2cccc(S(=O)(=O)N3CCOCC3)c2)o1	inactive: -2.09%
O=C1C([N+](=O)[O-])=C(O)c2cccc3cccc1c23	active: -40%
O=c1c2ccccc2c(/C=N/NS(=O)(=O)c2ccccc2)c(O)n1-c1ccccn1	inconclusive: 35.6% [fluorescent]
CCN(CC)c1ccc(/C=N/NC(=O)c2ccco2)c(O)c1	inconclusive: -21.7%
CCOC(=O)c1ccc(N2C(=O)CC(Sc3ncccn3)C2=O)cc1 (centres undefined)	inactive: 1.57%
COc1ccc(OC)c(S(=O)(=O)NC2CCN(Cc3ccccc3)CC2)c1	inconclusive: -18.8%
Cc1ccccc1C1C(C#N)=C2NC(=O)c3c(sc4c3CCCCC4)N2C2=C1C(=O)CC(C)(C)C2 (centres undefined)	inconclusive: -32.3% [fluorescent]
Cc1ccc(O)c(C(=O)c2cc(C#N)c(=O)n(-c3nccs3)c2)c1	inconclusive: -24.1% [fluorescent]
CCC(NC(=O)OCc1ccccc1)C(=O)Oc1ccc2ccc(=O)oc2c1 (centres undefined)	inactive: -3.06%
CC(C)N1CCN(S(=O)(=O)c2ccc3ccccc3c2)CC1	inactive: 0.482%
Cc1cc(O)c(NC(=O)c2ccc(Br)o2)cc1C	inactive: -0.956%
CCOc1ccc(-n2c(O)c(/C=N/c3ccnn3Cc3ccncc3)c3ccccc3c2=O)cc1	inconclusive: -17.2%
Cc1c(C(=O)NCCSCc2cccc(C(F)(F)F)c2)cnn1-c1ccc(Cl)cc1	inactive: -0.496%

Structure (SMILES)	activity score (negative = inhibition of binding)
Cc1ccc2[nH]c3c(c2c1)CN(C(=O)CN1CCN(C(=O)c2ccco2)CC1)CC3	inconclusive: -25%
COC(=O)CN1C(=O)S/C(=C/c2ccc(N3CCCCC3)o2)C1=O	inconclusive: 69.5% [fluorescent]
N#CC1=C(N)C(C#N)(C#N)[C@H](c2ccoc2)[C@H]2CN(Cc3ccccc3)CC=C12	active: -46.2%
CCOC(=O)/C=c1\s/c(=C\c2ccc(C#N)cc2)c(=O)n1CC(=O)NCc1ccco1	inconclusive: -13.6%
CN1CCc2c(sc3c2C(=O)NC(c2cccc(OC(=O)c4cccs4)c2)N3)C1 (centres undefined)	inactive: -2.57%
Nc1cnccc1C(=O)O	active: -29.9%
Cc1oc2cc(O)ccc2c(=O)c1-c1nncn1-c1ccccc1	inconclusive: -106% [fluorescent]
Cc1cc(C)c2c(=O)[nH]c(=O)n(Cc3ccccc3)c2n1	inconclusive: -16.8%
CCOC(=O)/C=c1\s/c(=C\c2ccc(-c3ccccc3)cc2)c(=O)n1CC(=O)NCc1ccc2c(c1)OCO2	inconclusive: -25.2%
NS(=O)(=O)c1ccc(CCNC(=O)Cc2ccc(S(=O)(=O)N3CCOCC3)s2)cc1	inactive: 3.31%
Cc1cccc(-c2c3c(=O)n(C)c(=O)n(C)c3c3cccnn23)c1	inconclusive: -16.3%
NC(=O)C1(N2CCCCC2)CCN(Cc2nc(-c3cccs3)no2)CC1	active: -34.6%
CC(=O)Nc1ccc(S(=O)(=O)Nc2nc3ccccc3nc2Nc2ccc(O)c(C(=O)O)c2)cc1	inconclusive: -50.6% [fluorescent]
CCCCn1nc(-c2ccccc2)c2nc3ccccc3nc21	inconclusive: -97.6% [fluorescent]
COc1cccc2c1NC(C(=O)O)C1CC=CC21 (centres undefined)	active: -76.4%
COc1ccc(N=Cc2c(O)c3ccccc3n2C(C)=O)cc1	inconclusive: -18.7%
CC1CCCN(Cc2c(O)ccc3c2O/C(=C\c2ccco2)C3=O)C1 (centres undefined)	inconclusive: -71.9% [fluorescent]
CCOC(=O)c1c(NC(=O)CSc2nnc(-c3c[nH]c4ccccc34)n2C)sc2c1CCCC2	inactive: 3.43%
COc1ccc2c(c1)c(/C=C/c1cc[n+](C)cc1)cn2C	inconclusive: 70.3% [fluorescent]
CCCc1cc(CNC(=O)C2CCC(=O)N(Cc3ccccc3OC)C2)on1 (centres undefined)	inactive: 0.515%
COc1ccc(-c2cc3ccc(OCC(N)=O)cc3oc2=O)cc1OC	inconclusive: -16.2%
O=C(Nc1ccccc1O)c1cccc(S(=O)(=O)Nc2ccccc2O)c1	inconclusive: -24.4%
O=c1cc(N2CCC(Cc3ccccc3)CC2)[nH]c(=O)n1C1CCCCC1	inactive: 2.01%
COc1ccc(/C=C2\CCCC(C(=O)C(F)(F)F)=C2O)cc1OC	active: -34.2%
Cn1c(=O)c(=O)n(C)c2cc(S(=O)(=O)NCc3ccc(Cl)cc3)ccc21	inactive: 0.487%
O=[N+]([O-])c1ccc(Nc2ccccc2O)c2nonc12	active: -35.8%
Nc1ccc(N(CCO)CCO)cc1	active: -27.8%
